The RNAGym collection of RNA variant scans (doi:10.1093/nar/gkz1192)
Read counts are not given, so values of variants with three or more changes are uncertain.

B1: CPEB3 Ribozyme (parent)
chain: UAACAGGGGGCCACAGCAGAAGCGUUCACGUCGCAGCCCCUGUCAGAUUCUGGUGAAUCUGCGAAUUCUGCUGUAUAUCUC

Variants of: B1
Assay: self-cleavage, relative activity (ratio to wild type); higher = more cleavage; in vitro, sequencing
Method in brief: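 Barcoded CPEB3 ribozyme mutants, produced by rounds of error-prone PCR, self-cleaved while being transcribed with T7 RNA polymerase for 5 hours at 37°C and during a subsequent 15 min DNase I step before EDTA was added. Sequencing of template-switched cDNA on Illumina gave cleaved and total reads, and DNA sequencing assigned barcodes to variants. Each variant's relative activity is its cleaved/total read fraction divided by the unmutated ribozyme's fraction, averaged across three batches. A variant needed a minimum of 5 reads.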

| Variant | self-cleavage |
| --- | --- |
| A13C G24U C29G U31C A64G U74C | 0.05 |
| A13G A15G U41C C71U | 0.41 |
| A13G U43A U48C U58C U72C | 0.09 |
| C12U A45G U58C | 0.32 |
| A13C A21G U41A U54C A65G | 0.16 |
| A13G U41C U49C | 0.25 |
| A13G A21G A28G U43C A45G | 0.28 |
| A13G A21G U31A A56U C62G | 0.07 |
| A13G A28G U31C | 0.43 |
| A13G U25A C29U A57G U76C | 0.11 |
| A13C C34A A56U U66C C71U U72A U76C | 0.09 |
| A13G A56C G63A A75G | 0.21 |
| A13G A28C U51C U69C | 0.13 |
| A13G A45G A57G A65G | 0.14 |
| A13C G52A A56G | 1.06 |
| C12U U26C G33U U60A U67C U72A U78C | 0.05 |
| A13G A20G G36U | 0.19 |
| A13G A20G U26C C32A U49A | 0.26 |
| A13C U25C A45G A47U A57G U72A | 0.11 |
| A13G A28U U72C | 0.53 |
| A13G C14A G19A U76A U80A | 0.19 |
| A13C A20G A56G | 0.46 |
| A13G A35U U72A U78C | 0.24 |
| A13G A35U A65G | 0.15 |

| Variant | self-cleavage |
| --- | --- |
| A13G A35U U58C U67G U72G | 0.27 |
| A13C U49C U72G | 0.17 |
| C12U G46A U58C | 0.15 |
| A13C A18G U31A U69C | 0.75 |
| A13G G52U U54G A65G U80A | 0.45 |
| A13G U31A C34A A64G | 0.12 |
| A13C A20G U26C U31C A57G | 0.13 |
| A13G A45U A77U | 0.34 |
| A13G G30A U49C U54C A56G A65U | 0.02 |
| C12U U41C U43C U78A | 1.02 |
| A13G A20G A28G G36A | 0.18 |
| A13G U25C U54C U66C A75G | 0.07 |
| A13G C17U A35G A47G | 0.15 |
| A13G A47C U69A U80A | 0.18 |
| A13G U31A C68U U80C | 0.27 |
| A13G A28U U49A | 0.27 |
| A13G A15C A47G | 0.36 |
| A13G U26C C38U | 0.22 |
| A13G A15U U51A A64G C71G U80C | 0.13 |
| A13C A20G A56U C62U | 0.23 |
| A13G A18C U60C | 0.33 |
| C12U A20U U25A A64G U78A | 0.26 |
| C12U U74A U80C | 1.48 |
| A13G A15G A47G U49C A56U | 0.24 |

| Variant | self-cleavage |
| --- | --- |
| A13G C27A A28G A35U U60C U69C | 0.06 |
| A13G U26A A35G G61C | 0.09 |
| C12U A57G U78C | 1.02 |
| C12U A20G U41A U43C A47G A77G | 0.05 |
| A13G A18G U43A U54A U69C U74C | 0.84 |
| C12U U25C A45U A77U | 0.04 |
| C12U U54C U60C | 0.46 |
| A13G C17U U31A | 0.3 |
| C12U C40U A45U U48C U49C | 0.12 |
| A13C C14U U26C C68U | 0.19 |
| A13G A28U U54C | 0.46 |
| A13G A18C U25C G30C A45U U51A | 0.05 |
| A13G U43G C62G U80C | 0.2 |
| A13G A18G A47G U60C U72C | 0 |
| A13G A35G U67C U74A | 0.08 |
| A13C A45U C62A | 0.1 |
| A13G U31C U41C U69C U80A | 0.17 |
| A13G A20U U41C U49C U60A | 0.04 |
| A13C A15G U51C G63A U66A U69C U72A | 0.36 |
| A13G U41C A45G U78A | 0.58 |
| C12U U31C A65U C68A | 0.11 |
| A13G U43A U58A | 0.38 |
| C12U U31A U76C | 1.09 |
| A13G A20G U26A G63A U69C | 0.12 |

| Variant | self-cleavage |
| --- | --- |
| A13G G33U U43C A47G U54C U69C | 0.07 |
| A13C A28U U72C A77U | 0.53 |
| A13G A28U U43C U49C C62U | 0.13 |
| A13G C14A A15G G33A U72G | 0.18 |
| C12U U41A U48C | 0.07 |
| A13C U31C A45G A65G G73A | 0.11 |
| C12U A20U U60G | 0.14 |
| A13G A15U U25A | 0.12 |
| C12U G46A U67C | 0.14 |
| A13G U26C A65U | 0.17 |
| A13G C59U U60A U80A | 0.13 |
| A13G C17A C23U U25C U69C A75G | 0.05 |
| A13C U43C A45G A47U U58C U72A | 0.2 |
| A13G A15G U31A A35U U51A | 0.41 |
| A13G A15G G46U A56G U60C U80C | 0.16 |
| A13G A15U G22C A45G U69C | 0.13 |
| A13G A35G U69C | 0.2 |
| A13G C23U U76C | 0.26 |
| A13G A35G U54C | 0.68 |
| A13C U25C U72C | 0.48 |
| A13G U48C A77G U78C | 0.2 |
| A13G A15G U54A U69C U80C | 0.08 |
| A13G A28U A35G A56U | 0.24 |
| A13G A20U A28G C40A U51A U58A | 0.25 |

| Variant | self-cleavage |
| --- | --- |
| A13G A15G U43C | 0.42 |
| A13C A28G U48C U54C | 0.09 |
| C12U A47G U51A | 1.17 |
| A13G U26G C29A A56U A64G U66C | 0.05 |
| A13G A21G A35U U80C | 0.16 |
| A13G A45G A64U U69G | 0.13 |
| A13G U26C G30A C50G A64G | 0.19 |
| A13C A15U C37U U51C U80A | 0.34 |
| A13G U26C A28G G73C | 0.23 |
| A13G C29U A65G U80C | 0.14 |
| A13G G33U A35C | 0.08 |
| C12U A47G U72C | 1.19 |
| A13G A21U A64C A65G U69C A77G | 0.21 |
| A13G C17U U60G U80C | 0.13 |
| A13G U41C A64G | 0.63 |
| A13G A45G U49C U69C | 0.23 |
| A13G A21G U25C A45G U78G | 0.47 |
| A13G A20U A35U A56U U76C U80C | 0.05 |
| C12U U41A A57U U60C U72C | 0.1 |
| A13G A21G C32U U51A U60C | 0.07 |
| A13C U26A A28G A45U U54C A64G | 0.09 |
| A13G U26C G33A C40U U41C C68G | 0.04 |
| A13G U26A U43C A47G U58A U80A | 0.11 |
| C12U U26C A28U A56U | 0.13 |

| Variant | self-cleavage |
| --- | --- |
| A13G A18C U49A A75U | 0.32 |
| A13C A18G A35G U54A A57C U76C | 0.99 |
| A13G A15G A45G | 0.18 |
| A13G A45G A64U | 0.2 |
| C12U C40U U43C | 0.2 |
| A13G A18U U54C G55U A57U U58A U67A | 0.09 |
| C12U U26C A28C U69A U72C | 0.14 |
| A13G U25C G30A U41C U54C U78C | 0.1 |
| A13G A18G A35U U51C U76A | 0.25 |
| A13C A15G U60C | 0.46 |
| A13G A35G U66C U80C | 0.48 |
| C12U U25C U51A U66C | 0.16 |
| A13C U25C U41A U60C | 0.16 |
| A13G A18U A28G | 0.38 |
| A13G A35U C44A U49C | 0.06 |
| A13G U43A C50G U78C | 0.25 |
| A13G C17U G19A U25A U54G | 0.13 |
| A13G G16C A28G U60C | 0.67 |
| A13G C62A U67C | 0.16 |
| A13G G24A C38U U49A U60A A64G C71U | 0.04 |
| C12U G19A U31C C32U U43C G55A A56G | 0.04 |
| A13C U31C A47G U54C U60C A65G | 0.14 |
| C12U C23A U25A A28C U41C A47G U67C | 0.05 |
| A13G U26G A45G U72C U78C | 0.74 |

| Variant | self-cleavage |
| --- | --- |
| C12U G22U A75G | 0.51 |
| A13C C40U U48A U67A U74C | 0.05 |
| A13G C32A A64U | 0.15 |
| A13G G30U C34G | 0.08 |
| A13G A45G U69C U78A | 0.12 |
| A13G A20G A56G U66C | 0.25 |
| A13C G22C U51A U60C | 0.11 |
| C12U A21G U78C | 0.85 |
| A13G A15G U69C U74C | 0.28 |
| A13G A20G U51A A64U U69A G73U | 0.15 |
| A13G G24A A35G U66C | 0.09 |
| A13G A20U U43C | 0.35 |
| A13G U31A A56G U58C | 0.2 |
| A13G C17U A21G | 0.35 |
| A13G A18G C40U U67C U69C U72C A75G | 0.08 |
| A13G A18U A21U | 0.27 |
| A13G A18G C50U A75G | 0.11 |
| A13G U25A U51C U72C | 0.4 |
| A13C U25C G36A | 0.08 |
| A13G U26A U51A | 0.81 |
| A13G U26A U51C | 0.79 |
| A13C U25C C62U U80C | 0.11 |
| A13C A18U A64U | 0.21 |
